{
  "source": "PubChem BioAssay AID504832",
  "about": "(National Center for Advancing Translational Sciences (NCATS), 2011)",
  "note": "About 18,000 (5.8%) of roughly 310,000 compounds were called active. Inconclusive means that the source gave no clear call. Such entries were picked first, then a sample of the others. Calls come from the whole dose curve; as a rule, active = well fitted inhibition curve with a large enough effect; inconclusive = small, poorly fitted or top-dose-only effect, or another doubt; inactive = no such curve, though single readings can be large or run the other way. Potencies of inconclusive entries are left out as doubtful fits. % is set by controls: 0 for no effect and ±100 for the full control effect; potency is the fitted concentration of half-maximal effect; tags give direction and shape of the fitted curve.",
  "data": [
    {"assay": "Primary qHTS for delayed death inhibitors of the malarial parasite plastid, 48 hour incubation", "settings": "P. falciparum luciferase growth in erythrocytes; series mostly up to 28.7 µM; activity change, negative = inhibition: at the top concentration", "outline": "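Luciferase-expressing P. falciparum in infected erythrocytes (2% hematocrit, 0.1% parasitemia final) in RPMI 1640/0.5% Albumax were exposed to compound for 48 hours at 37 C, 5% CO2; growth read as luminescence.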", "values": [
      {"compound": "COc1ccc(/C=C/C(=O)Nc2cccc(N3CCOCC3)c2)cc1OC", "Potency": "inconclusive [inhibitor, partial curve]"},
      {"compound": "COc1ccc(NC(=O)c2cc(-c3ccccc3OC)on2)cc1", "Potency": "inconclusive [inhibitor, partial curve, poor fit]"},
      {"compound": "COc1ccc2[nH]c3c(=O)n(CCCCC(=O)NCCC(C)C)c(=S)[nH]c3c2c1", "Potency": "inconclusive [inhibitor, single point]"},
      {"compound": "CC(=O)Nc1cccc(C(=O)N2CCC(n3nccc3NC(=O)CC(C)C)CC2)c1", "activity change, negative = inhibition": "inactive: 6.32%"},
      {"compound": "CCC(C(=O)NCCCN1CCCC1=O)n1c2ccccc2c2nc(=O)cc(C)n21", "note": "(stereo not drawn)", "activity change, negative = inhibition": "inactive: 10.7%"},
      {"compound": "CCn1c(CSc2nc3ccccc3n2C)nc2ccccc21", "Potency": "inconclusive [inhibitor, partial curve]"},
      {"compound": "CCOc1ccc(C(C)NC(=O)c2cccnc2OCC)cc1OCC", "note": "(stereo not drawn)", "Potency": "inconclusive [inhibitor, single point]"},
      {"compound": "Cc1ccc(NC(=O)CSc2ccccc2NC(=O)c2ccccc2Cl)cc1Cl", "Potency": "inconclusive [inhibitor, single point]"},
      {"compound": "CCCCN(C(=O)c1cccc2c(=O)c(C)c(-c3ccccc3)oc12)c1ccccc1", "Potency": "inconclusive [inhibitor, partial curve]"},
      {"compound": "CCCOc1ccccc1N/C(=N/c1nc(C)cc(C)n1)NC(=O)Nc1ccc(Cl)cc1", "Potency": "active: 13.1 µM"},
      {"compound": "COc1ccc(C2c3c(ccc4ccccc34)Oc3ncn4nc(-c5ccco5)nc4c32)cc1", "note": "(stereo not drawn)", "Potency": "inconclusive [inhibitor, partial curve, poor fit]"},
      {"compound": "O=C(Nc1ccccc1C(=O)N1CCN(Cc2ccccc2)CC1)c1ccccn1", "Potency": "inconclusive [inhibitor, single point]"},
      {"compound": "CCN1/C(=C/c2ccc3cc(C)ccc3[n+]2CC)Sc2cc(C)c(C)cc21", "Potency": "active: 2.08 µM"},
      {"compound": "CC1CCN(CCNC(=O)CCS(=O)(=O)c2ccc(Br)cc2)CC1", "Potency": "inconclusive [inhibitor, partial curve, poor fit]"},
      {"compound": "Cc1noc(/C=C/N(C)C)c1S(=O)(=O)N1CCCC(C(=O)NCc2ccc(Cl)cc2)C1", "note": "(stereo not drawn)", "Potency": "inconclusive [inhibitor, partial curve]"},
      {"compound": "O=[N+]([O-])c1ccc2c3n([n+]([O-])c2c1)CCN=C3c1ccc(Cl)cc1", "Potency": "active: 11.7 µM"},
      {"compound": "COc1ccc(OC)c(CN2CCN(C(=O)c3ccc(S(=O)(=O)Nc4ccccc4F)cc3)CC2)c1", "Potency": "inconclusive [inhibitor, single point]"},
      {"compound": "O=C1S/C(=C\\c2cccs2)C(=O)N1c1ccc(O)cc1", "activity change, negative = inhibition": "inactive: 37.5%"}
    ]}
  ]
}
